Reference: paper PMC5515408
Some of the results follow. At the low end of the ranking the order means little.

The sequences below were run on MYC (p64) + MAX (p21), in MYC:MAX (assay: protein-binding microarray (anti-MAX antibody)). Conditions: PBM: 15 mM Tris-HCl pH 7.5, 100 mM KCl, 0.075% NP40, 7.5 mM beta-mercaptoethanol, 375 ng/ul BSA, 8 ng/ul poly(dA-dT):(dA-dT), 550 ng complex, 60 min, room …; high values mean tight binding; double strand, one strand shown; sequences stand for … in CCGGC…TTAATAGCTAAGATTACTATATCGACG.

Row | Sequence | binding signal (log2 normalized fluorescence)
1 | TGATCCGTGGTA | 0.151
2 | TGACAGATTGTA | 0.201
3 | TGAACAGACGTA | 0.177
4 | TGACGTCATGTA | 0.394
5 | TGACCCTTTGTA | 0.115
6 | TGATATGTGGTA | 0.21
7 | TGAGCTACCGTA | 0.106
8 | TGAAACTGTGTA | 0.119
9 | TGATTCTCTGTA | -0.15
10 | TGACCTACCGTA | 0.209
11 | TGAGATGTAGTA | 0.0507
12 | TGAACTTTAGTA | -0.0253
13 | TGAGTTGCGGTA | 0.0296
14 | TAAGAAGTGGTA | 0.209
15 | TGACTGGTTGTA | 0.021
16 | TGATTTAGGGTA | -0.26
17 | TGACGTACCGTA | 0.255
18 | TGACTCTAAGTA | -0.173
19 | TGACACGATTTA | 0.445
20 | TGATCTTGCGTA | 0.021
21 | TGAGGCGAGTTT | 0.245
22 | TGAATGATTGTA | 0.187
23 | TGAGCATGTGTA | 0.737
24 | TGACGAACAGTA | -0.0252
25 | TGATTGTCAGTA | -0.0168

Row | Sequence | binding signal (log2 normalized fluorescence)
26 | TGACAACAGGTA | 0.0907
27 | TGACACGTCGCA | 0.416
28 | TGAGTAGGGGTA | 0.208
29 | TGACTAGGTGTA | -0.0433
30 | TGAAGCGAGGTA | 0.249
31 | TGAACGACTGTA | 0.123
32 | TGAGCGTCTGTA | -0.0215
33 | TGACCACGTGTA | 0.807
34 | TGAGTATACGTA | 0.0171
35 | CCACACGTGGTA | 0.945
36 | TGATGGTACGTA | 0.157
37 | TGACTAGTCGTA | -0.0843
38 | TGAGAGTTGGTA | -0.108
39 | TGAGTATAGGTA | -0.243
40 | TGAATACGGGTA | -0.0418
41 | TGAGCCGTCGTA | -0.123
42 | GGACAACTGGTA | 0.137
43 | TGAACAAAAGTA | -0.0482
44 | TGAAATAATGTA | 0.121
45 | TGAGTCGCGGTA | 0.0682
46 | TGACAACTGGTT | 0.195
47 | TGAATTATCGTA | -0.0569
48 | TGACTCCCGGTA | 0.101
49 | CGACATGTGGTA | 0.663
50 | TGACGCTTCGTA | 0.132

Row | Sequence | binding signal (log2 normalized fluorescence)
51 | TGAGGTTAAGTA | -0.319
52 | CGCCACGTAGTA | 0.312
53 | TGAGTATGGGTA | 0.0873
54 | TGAAGATCAGTA | -0.0886
55 | TGACACGTGGCA | 0.835
56 | TGAGTAGTCGTA | -0.218
57 | TGACTTTTAGTA | -0.0591
58 | TGAGCTGAGGTA | -0.206
59 | TGAATGGGCGTA | 0.45
60 | TGAGATGGTGTA | -0.0153
61 | TGATGAGAGGTA | -0.0276
62 | TGAGTGAGAGTA | -0.101
63 | TGATGCACCGTA | 0.308
64 | TGACGTATTGTA | 0.174
65 | TGACGGTGGGTA | 0.0267
66 | TGACTGCAAGTA | 0.204
67 | TGACTGTCTGTA | -0.00359
68 | TGAGTGATTGTA | -0.021
69 | TGACACGTGACT | 0.628
70 | TGAGGTTGAGTA | -0.0766
71 | TGATGCCTCGTA | 0.1
72 | TGATCTTGAGTA | 0.000935
73 | TGATAGACGGTA | -0.17
74 | TGACGCAGGGTA | 0.0395
75 | TCTCACGTGGTA | 0.891

Row | Sequence | binding signal (log2 normalized fluorescence)
76 | TGACAAAAGGTA | 0.102
77 | TGAGACATTGTA | 0.0415
78 | TGACACGGGATC | 0.253
79 | TGAACTCGAGTA | 0.253
80 | TGAAGCCCGGTA | -0.0353
81 | TGACACGGCCTA | 0.178
82 | TGACAACCAGTA | 0.216
83 | TGACGTACTGTA | 0.177
84 | TGACCCATCGTA | 0.155
85 | TGAACTATGGTA | -0.0341
86 | TGATGCTGTGTA | 0.0588
87 | TGACAGAGAGTA | 0.0472
88 | TGATCCACGGTA | 0.285
89 | TGACACGTCCCA | 0.378
90 | TGAGGTTACGTA | 0.0304
91 | TCCCACGTAGTA | 0.395
92 | TGAAGCGTCGTA | 0.000584
93 | TGAAAGTCGGTA | -0.126
94 | TGACAGATCGTA | 0.088
95 | TGACGGTAAGTA | -0.0614
96 | TGAGCCGTAGTA | -0.128
97 | TGAGAGTGGGTA | -0.0178
98 | TGATACCATGTA | 0.254
99 | TGAGGCCGCGTA | -0.0656
100 | TGATGGATTGTA | 0.0859

Row | Sequence | binding signal (log2 normalized fluorescence)
101 | TGAAGTAAGGTA | 0.172
102 | TGATCCGTAGTA | -0.344
103 | TGATAACGCGTA | 0.115
104 | AGACACGTGGTG | 0.826
105 | TGAGCCTAAGTA | -0.155
106 | TAAAACGTGGTA | 0.688
107 | TGATTCCAAGTA | -0.0353
108 | TGAGCAACAGTA | 0.0569
109 | TGACACGTGAGT | 0.793
110 | TGAACTGCTGTA | 0.121
111 | TGACCATGTGTA | 0.599
112 | TGAACTGTGGTA | 0.105
113 | TGACGGGGGGTA | 0.672
114 | TGATACCGGGTA | -0.2
115 | TGATGGGGTGTA | 0.289
116 | TGAACGACAGTA | 0.294
117 | TGACGAAGGGTA | -0.0371
118 | TGAACCAAAGTA | -0.0967
119 | TGAGAAGCCGTA | -0.0901
120 | GGACACGTGCTA | 0.839
121 | TGAGAACGAGTA | 0.146
122 | TGACCATGGGTA | 0.0886
123 | TGCCACGTAGTG | 0.23
124 | TGAGTGACCGTA | 0.0161
125 | TGACCTTTCGTA | 0.124

Row | Sequence | binding signal (log2 normalized fluorescence)
126 | TGACACGTGACA | 0.756
127 | TGACACGTGACC | 0.633
128 | TCTCACGTCGTA | 0.292
129 | TGATAACCGGTA | 0.0563
130 | TGACATAGTGTA | 0.159
131 | TGAGCCCACGTA | 0.444
132 | TGAATCCTTGTA | 0.0329
133 | TGAGAGGATGTA | 0.0117
134 | TGATGTTTAGTA | 0.176
135 | TGAAGGACCGTA | 0.0673
136 | TGACACGCGGGA | 0.436
137 | TGAAACGTAGTA | 0.0734
138 | TGAAAATAGGTA | -0.106
139 | TGAGAACTAGTA | -0.0292
140 | TGACCGACGGTA | -0.0377
141 | TGATCCATCGTA | 0.113
142 | TGACTCTCCGTA | -0.0102
143 | TGAAGGTAGGTA | 0.103
144 | TGAAACTCTGTA | 0.0158
145 | TGACCCTTGATA | 0.0562
146 | TGATTCTACGTA | -0.109
147 | TGAATGTTCGTA | 0.267
148 | TGACTAACGGTA | 0.156
149 | TGAATGAGTGTA | 0.179
150 | TGATTCGCCGTA | -0.0508

Row | Sequence | binding signal (log2 normalized fluorescence)
151 | TGAATCCGAGTA | -0.0269
152 | TGACCTCAAGTA | 0.278
153 | TGACACCTGAGA | 0.302
154 | TGATAGTGAGTA | 0.0151
155 | TGAGCATCTGTA | 0.0726
156 | TGACAGTGCGTA | 0.233
157 | TGATTGCCAGTA | -0.173
158 | TGACGACGCGTA | 0.424
159 | TGAGACCTAGTA | 0.0908
160 | TGACGGTTTGTA | -0.123
161 | TGAAGGCTAGTA | -0.0941
162 | TGAAGTCGAGTA | -0.0181
163 | TGAGAGGCAGTA | -0.0652
164 | TGACACGTGGCC | 0.897
165 | TGACCGGTGCTA | 0.151
166 | TGACGAAGCGTA | 0.0775
167 | TGAAAGATAGTA | -0.00687
168 | TGAGGTTTCGTA | -0.145
169 | TGACTCCGTGTA | 0.183
170 | TCACACATGCTA | 0.767
171 | TGATGGCCAGTA | 0.128
172 | GCCGATTACCCT | -0.0941
173 | TGACACGTATTA | 0.347
174 | TGATAAGATGTA | -0.0494
175 | TGAATCCACGTA | 0.325
